Assay results taken from the supplement of paper PMC11417369.
± gives the standard deviation of the averaged measurements. This is one part of the list.

Test system: PfAP2-I AP2 domain 3 (GST-tagged)
Experiment: gcPBM binding intensity (ln(normalized median fluorescence intensity)); higher = stronger DNA binding
Summary of the method: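 Binding of GST-tagged P. falciparum DNA-binding domains, expressed in E. coli and used at about 25 μg on average, was carried out for 1 h in 1× PBS containing 1% milk, 0.2 mg/ml BSA, 0.5% salmon testes DNA and 0.03% Triton X-100. The target was an Agilent 4 × 180k array of primer-extended double-stranded 36-bp intergenic genomic probes plus negative controls, read with Alexa488 anti-GST antibody at 488 nm. Binding intensity is the highest Masliner-normalised natural-log median intensity across replicate spots of either probe orientation.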

Row | Sequence | gcPBM binding intensity (ln)
1 | TATGATATCTATAATACACACATATACATAAGATCT [CACACA_site6652] | 7.75 ± 0.33
2 | TTAATATAACTTTTTGCACACTTAATTTTTTTTTTT [CACACA_site3364] | 9.32 ± 0.085
3 | TTATATAAAACATTAACACACAAAGAAAAAAAATTA [CACACA_site1793] | 7.71 ± 0.67
4 | ATATAAATCATTGGTTGTACATATAATATTTTATAA [XGTACX_site925] | 7.95 ± 0.2
5 | TATTTTTACCCATAAAGTACACATAAATATAAAATA [XGTACX_site177] | 7.91 ± 0.36
6 | TATATATCTATATATTGTACATATGTTTGTATGTGT [XGTACX_site7420] | 7.92 ± 0.5
7 | TAATATTTCTTATTTTATATTTGTATATGAATGGAT [XGTACX_negctrl_site278] | 7.53 ± 0.42
8 | TTTTTTTTTTTTTGATGTACAATTAATATTATAAAA [XGTACX_site6969] | 8.16 ± 0.66
9 | ATTTCTTTTTTATTGAGTACATATGACCATGTTCAA [XGTACX_site5365] | 8.14 ± 0.38
10 | AGTAATAAATAATTTACACACATATTATATCATCAC [CACACA_site1890] | 7.71 ± 0.56
11 | CATTTTAAAGAAAATACACACAAAAATAGATATATA [CACACA_site6773] | 7.54 ± 0.49
12 | GAAAAAAATGAAATTAGTACTTATCTTAAATTTTTA [XGTACX_site1018] | 7.35 ± 0.42
13 | AAAAATATATAATAAAGTACACATAAATGAATAAAT [XGTACX_site329] | 7.7 ± 0.49
14 | TGTAAGCACATACAAACACACAACATTATTTTTATC [CACACA_site2186] | 7.96 ± 0.36
15 | TAGTATAATATGAACACACACACACGCACAAAAAAA [CACACA_site7035] | 8.41 ± 0.62
16 | ATCGTTATATAAAAATGTACTTATAAATTGTATACA [XGTACX_site6664] | 7.85 ± 0.41
17 | CAACATTTGATAAACACACAGAAGTATAAATATATA [CACACA_site2365] | 7.58 ± 0.61
18 | TATTATATTATGTGATGTACATATTTATATAGGCCC [XGTACX_site4746] | 7.76 ± 0.29
19 | ATTTATTGACTATTTACACACATATTTATTAAAATA [CACACA_site4980] | 8.16 ± 0.52
20 | TACGCTCCCAGACACACACACACACCGATATAATAT [CACACA_site8098] | 8.26 ± 0.43
21 | TATTACATACCTTATTGTACAAATTATATATTAAAG [XGTACX_site7334] | 7.91 ± 0.48
22 | ACAGTATCTGGTAGCTGTACGAGTCGTAGAGAGTAG [XGTACX_site2041] | 8.54 ± 0.33
23 | ATTCAGTTATATAATACACACATATATTGACATTAT [CACACA_site2723] | 8.04 ± 0.49

Row | Sequence | gcPBM binding intensity (ln)
24 | AGGTGCAAAAATAAAACATGCAAAAATAAAAATGAA [TGCATGCA_site502] | 10.9 ± 0.65
25 | TAATAAAAAATATATACACACAAATAAATAAATAAA [CACACA_site4037] | 7.84 ± 0.78
26 | AATAGTCGTGTGCATACACACCTTAACTATAATATA [CACACA_site6636] | 8.83 ± 0.2
27 | AATAATTAAATAAGAGTGCATGAAACAGGAAATTTC | 9.37 ± 0.34
28 | TATTGTTAAAATGAATAATTAAAACAGTAATGAATA [XGTACX_negctrl_site170] | 7.42 ± 0.62
29 | TTAGCAACTATTACTACACACATTTTTATATAACTT [CACACA_site6762] | 7.84 ± 0.59
30 | AAGAAATAAAGCAAAACATGCACTCGAAAATGTTTT [TGCATGCA_site1014] | 8.42 ± 0.4
31 | CGCATGCAATGTTAATGTACATATATATATATATGT [XGTACX_site3316] | 8.54 ± 0.27
32 | TATATATGTTTTTATGTACACACTTTTAACCTAAGA [CACACA_site1149] | 8.03 ± 0.4
33 | ATGTCTAATTTTGATGCACACTTTTGTGCAATTAAA [CACACA_site5589] | 10.2 ± 0.26
34 | GAAAAAACGAAAAAAATACACACCTGAAAAGATATG [CACACA_site887] | 7.46 ± 0.8
35 | ATACATACAAAAATTTGTACATATTTCCAATAATGT [XGTACX_site2658] | 7.75 ± 0.45
36 | AAATTTCCATTTGGGTGTACATGTGAAACTACAAAG [XGTACX_site208] | 8.1 ± 0.51
37 | GCCATAATATGACATACACACACAAAAAAAAAAAAA [CACACA_site8353] | 8.06 ± 0.73
38 | AAACAATTGAATAAATGTACAGATACATTTTTTTAA [XGTACX_site5386] | 7.28 ± 0.37
39 | TATTTATCTATTTTGTTATATAATAAAATAAAATAA [CACACA_negctrl_site281] | 7.56 ± 0.4
40 | AAAAATAAACAAAATTGTACACATTACATACATATA [XGTACX_site966] | 7.7 ± 0.42
41 | TATATATATATATGTAGTACTCAATATTGTAGATTA [XGTACX_site3856] | 9.22 ± 0.25
42 | AAATATATGTATATATGTACATATGTGTGCTATCAT [XGTACX_site1604] | 8.565 ± 0.064
43 | TAATTTTTTTTTAATTGTACATGTGAATATATTTCA [XGTACX_site4115] | 7.67 ± 0.35
44 | GTTTACATTTTAAGAAGTACAAAATTTATGGTTAAA [XGTACX_site450] | 7.96 ± 0.45
45 | TGTTCTTTGTTCAGCGCATGTAAAATAAAATAAAAT [TGCATGCA_site629] | 8.21 ± 0.43
46 | TTTTTTTTTGAATACAGTACACAAGTGTTAAGTTTA [XGTACX_site7069] | 7.59 ± 0.57

Row | Sequence | gcPBM binding intensity (ln)
47 | TATGAATATCTATACACACACATATATATACCCACT [CACACA_site4963] | 8.07 ± 0.61
48 | GATTGATTATATGTGTGTACTTATATGTTAAAAAAA [XGTACX_site4784] | 8.06 ± 0.31
49 | AAAGGTGTCATATATGCACACAAAAGTAACACGCAC [CACACA_site8051] | 10.3 ± 0.2
50 | TTTATTCTTGAGTATTGTACATATGTGTTTGTATAT [XGTACX_site5706] | 7.85 ± 0.31
51 | GAAAGAATAAAATTTACACACATATAAATATACATA [CACACA_site7125] | 7.5 ± 0.42
52 | AGGAGGATGCATATGGCACACATTATGAAACTGTCG [CACACA_site299] | 9.11 ± 1
53 | ACACTAACATCATATCGTACATTTGTTAATTTATAA [XGTACX_site8654] | 8.06 ± 0.4
54 | TATTTATTTTTTTTTGTGCACTTAATATAATCTTAC | 11.07 ± 0.042
55 | TTTTCCCTCTTATTCACACAAAAAAAATAAAATAAA [CACACA_site4656] | 7.86 ± 0.21
56 | TTTTTATTTATATGATACTTATATATATATATATAT [CACACA_negctrl_site462] | 9.39 ± 0.53
57 | TCTTTTAAAAAAATTTGTACATATTTTTTGTATTAT [XGTACX_site67] | 7.79 ± 0.47
58 | TTCTTAATATTGCATGCACACTATATAATAATTGAA [CACACA_site4720] | 8.96 ± 0.28
59 | ATACAAAAGGGGAATACACACACATATATATATATA [CACACA_site8694] | 9.21 ± 0.38
60 | AATAAACATAGATGTACACACATATACAGATATATA [CACACA_site5570] | 7.88 ± 0.16
61 | TTGTTCTATATATATGCATGCACGTATGTTAAATTA [TGCATGCA_site659] | 11.3 ± 0.23
62 | TATTAATTTTTATACGCATGTGTATAGTAATATATA [TGCATGCA_site1010] | 7.62 ± 0.42
63 | TCTCATATATTGAATTGTACATATGTTAAAATATAG [XGTACX_site6764] | 7.75 ± 0.36
64 | AAAAATAAAGGATATACACACTAATTCTATAAATAT [CACACA_site7344] | 7.58 ± 0.36
65 | TATAAGTATTAATACACACACAAAATAATAAAAAAA [CACACA_site3481] | 7.95 ± 0.63
66 | GTCTCGATAATGAAAAGTACAAAATAAAAATAATAA [XGTACX_site6471] | 8.14 ± 0.13
67 | TAAAGAATAATACATTCACACAATATTATAAAAATA [CACACA_site5986] | 7.33 ± 0.54
68 | TTGTATGAATTTATTTTTATTGATAATTAATATGTA [TGCATGCA_negctrl_site143] | 7.35 ± 0.48
69 | GAAATGTCATATAATAGTACACACATGAAAATATAA [XGTACX_site6838] | 8.09 ± 0.33

Row | Sequence | gcPBM binding intensity (ln)
70 | TATGATTAATTACCACAATTGACAAAAAAAAAAAAA [CACACA_negctrl_site336] | 8.13 ± 0.87
71 | AAAAAAAACAGACACACACACATACAAAATATATAT [CACACA_site1449] | 7.89 ± 0.43
72 | TTTAAATACAGACATACACACATACACAGACATATA [CACACA_site4460] | 7.92 ± 0.28
73 | ATATTTTTATGTACTTCAAAAAAAAAGAAAAACAAA [CACACA_negctrl_site970] | 7.9 ± 0.028
74 | CTCTATTGTTAAAAGGTGCTTTTATGATTTTATATA [GTGCAC_site9409] | 9.63 ± 0.38
75 | AAGAGGTTAATGAAATGTACACATATATATATATAT [XGTACX_site1861] | 9.63 ± 0.37
76 | TATAGTTTTGAAAACAAACACACAAAAAAAAAAAAA [CACACA_site1691] | 8.07 ± 0.7
77 | TATGTAACCTGTTTTACACACCCCCACCCCCCTCTT [CACACA_site319] | 10.2 ± 0.11
78 | TTTTTTTTCTATGTGGTGCACATTATTTTTTTTTTT | 10.5 ± 0.42
79 | TTTTATAAATATTATACATGCATAATGATAAAAAAA [TGCATGCA_site927] | 7.88 ± 0.58
80 | AAGAAAAGAACAAGAGCATGCACTTAATAAGAATAA [TGCATGCA_site818] | 7.75 ± 0.86
81 | TTAATATATTTTAAAAGTACATAATATTATTTTTTA [XGTACX_site3642] | 7.56 ± 0.38
82 | TAATATGTGGACTTTACACACTTGTTTTAAAATTCT [CACACA_site4605] | 7.68 ± 0.59
83 | ATATATATATATATATGTACTTATTTATTTATTTAT [XGTACX_site4645] | 9.2 ± 0.26
84 | ATATTTTACATATTTGCACACATATATTTATATACA [CACACA_site855] | 9.525 ± 0.007
85 | GAAGACAATTATATGTGTACATATATATACATATAT [XGTACX_site4630] | 7.76 ± 0.29
86 | AGTAGATATTATTATAGTACTTTTTATTTTATATTT [XGTACX_site1551] | 7.55 ± 0.53
87 | GGAATTCATATTAATTGTACATTTAAAGATAGATGA [XGTACX_site3279] | 7.79 ± 0.57
88 | ATATTAAAGATATATACACACATATTTATAAATATA [CACACA_site7127] | 7.58 ± 0.59
89 | AAAATTTATGGAAGGTGTACTGTTAATTATGTATAT [XGTACX_site6446] | 8.14 ± 0.44
